Laboratory results as given in paper PMC4336329 (PLoS ONE, 2015).
Among all 310,000 compounds or so, about 2,200 (0.71%) showed an effect of 50% or more. Effects have a minus sign here. This is one part of the list.

biological target: human ether-à-go-go-related gene (hERG) potassium channel (human, UniProt Q12809); experiment: primary screen, population patch clamp on CHO cells stably expressing hERG
Sequence (Q12809 whole entry, looked up): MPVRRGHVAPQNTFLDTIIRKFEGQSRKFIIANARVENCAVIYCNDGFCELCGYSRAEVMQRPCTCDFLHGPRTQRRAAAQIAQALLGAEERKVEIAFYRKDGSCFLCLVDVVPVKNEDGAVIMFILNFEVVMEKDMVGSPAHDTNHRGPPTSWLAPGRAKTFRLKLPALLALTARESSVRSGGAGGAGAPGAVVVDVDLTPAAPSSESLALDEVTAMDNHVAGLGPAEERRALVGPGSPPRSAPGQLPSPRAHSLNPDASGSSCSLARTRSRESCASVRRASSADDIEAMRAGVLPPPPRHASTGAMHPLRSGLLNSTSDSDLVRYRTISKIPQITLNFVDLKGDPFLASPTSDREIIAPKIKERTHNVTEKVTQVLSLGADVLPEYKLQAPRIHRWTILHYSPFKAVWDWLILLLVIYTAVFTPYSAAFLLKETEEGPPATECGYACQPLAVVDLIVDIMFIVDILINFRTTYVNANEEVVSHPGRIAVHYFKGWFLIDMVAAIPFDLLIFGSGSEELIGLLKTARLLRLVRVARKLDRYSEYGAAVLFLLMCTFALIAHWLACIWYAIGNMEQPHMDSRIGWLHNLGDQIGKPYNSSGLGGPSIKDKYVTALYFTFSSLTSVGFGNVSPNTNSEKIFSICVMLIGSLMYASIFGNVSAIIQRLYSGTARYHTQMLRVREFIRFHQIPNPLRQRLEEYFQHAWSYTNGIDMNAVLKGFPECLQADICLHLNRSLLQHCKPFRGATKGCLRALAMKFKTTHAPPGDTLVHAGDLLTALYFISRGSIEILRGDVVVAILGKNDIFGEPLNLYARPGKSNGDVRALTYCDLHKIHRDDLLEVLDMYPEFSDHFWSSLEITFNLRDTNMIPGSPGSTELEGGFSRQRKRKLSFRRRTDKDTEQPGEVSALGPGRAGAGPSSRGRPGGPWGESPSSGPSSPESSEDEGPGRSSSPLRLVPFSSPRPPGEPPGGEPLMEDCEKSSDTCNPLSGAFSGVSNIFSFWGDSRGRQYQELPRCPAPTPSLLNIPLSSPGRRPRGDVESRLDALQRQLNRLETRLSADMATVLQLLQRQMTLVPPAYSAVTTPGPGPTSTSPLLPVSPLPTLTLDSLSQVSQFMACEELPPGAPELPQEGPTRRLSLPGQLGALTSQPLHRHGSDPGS

Row | SMILES | hERG current change (%, negative = inhibition) at 1uM
1 | O=C(CN1C(=O)C(=O)N(Cc2ccccc2)C1=O)Nc1ccc(F)c(Cl)c1 | 11%
2 | Clc1ncc(CSc2ccccc2)s1 | 5.7%
3 | CCN(CC)S(=O)(=O)c1cccc(NC(=O)c2ccc(SC)cc2OC)c1 | -4.35%
4 | CCC1CN(C(=O)N2CCC(C(=O)NCc3cccc(OC)c3OC)CC2)c2cc(C)ccc2O1 (stereo not shown) | 11.1%
5 | N#Cc1c(N2CCOCC2)nc(N2CCCCC2)c2c1CCN(C1CCCCC1)C2 | 2.19%
6 | O=[N+]([O-])c1ccc(N2CCN(C(=S)Nc3ccc(F)cc3)CC2)cc1 | -23.8%
7 | Cc1cc2oc(=O)cc(CSc3nnc(C)n3N)c2cc1C(C)C | 6.87%
8 | CC1CC(C)CN(CCOc2ccc(Cl)cc2Cl)C1.O=C(O)C(=O)O (stereo not shown) | -35.5%
9 | O=C(c1cccs1)N1CCN(C(=O)c2ccco2)c2ccccc2C1 | 5.51%
10 | Cc1c(C(=O)Nc2nc(-c3ccccn3)cs2)oc2ccccc12 | 13.1%
11 | Cc1cc(C(=O)NNC(=O)c2ccccc2F)c2ccccc2n1 | 9.03%
12 | O=C(CNC1CCCCC1)Nc1cccc([N+](=O)[O-])c1 | 9.45%
13 | CCOc1ccc2nc(NC3=NC(C)(C)C=C(C)N3)nc(C)c2c1 | -3.64%
14 | c1ccc2c(CNc3ccc(CNc4ncn[nH]4)cc3)cccc2c1 | 10.7%
15 | O=C(O)Cc1sc(-c2cccnc2)nc1-c1ccc(Br)cc1 | 32.5%
16 | CC(C(O)c1ccccc1)N(C)CCn1cnc2c1c(=O)n(C)c(=O)n2C (stereo not shown) | 17.9%
17 | CCN(CC(=O)NCc1ccc(Cl)cc1)C(=O)c1cnc(Cl)c(Cl)c1 | 12.1%
18 | CCOc1ccc(CCNC(=O)CCS(=O)(=O)c2ccc(Cl)cc2)cc1OCC | 6.98%
19 | CCc1cc2c3c(c1)C1(C(=O)N3C(C)(C)C=C2C)C(C#N)=C(N)Oc2[nH]c(=O)[nH]c(=O)c21 (stereo not shown) | 16%
20 | CC(=O)c1cccc(NC2c3ncccc3C(=O)N2Cc2ccco2)c1 (stereo not shown) | -0.704%
21 | COc1ccc(-c2noc(CCC(=O)NC3CCCCCC3)n2)cc1 | 12.5%
22 | Cc1ccc(-n2ncc3c(NCc4cccnc4)ncnc32)cc1C | 0.0268%
23 | O=S(=O)(NCCN1CCCC1)c1cccc2cccnc12 | 7.17%

Row | SMILES | hERG current change (%, negative = inhibition) at 1uM
24 | COC(=O)c1cccnc1-n1c(=O)c2cccnc2n(Cc2ccc(Cl)cc2)c1=O | -3.39%
25 | Cc1ccc(-c2cc(-c3ccccc3)nc(N)c2C#N)o1 | 11.3%
26 | COC(=O)CCCCCCCCCCN1CCCCC1 | 4.36%
27 | CC(C)c1ccc(N=C(N)N=C(N)N)cc1.Cl | -7.21%
28 | Cc1cc(C(=O)CSc2nc3ccccc3[nH]2)c(C)n1Cc1ccco1 | 22.3%
29 | CCOc1ccc(-c2[nH]ncc2Oc2cccc(OC)c2)c(O)c1 | -3.96%
30 | N#Cc1c(F)cccc1NCc1cccs1 | 10%
31 | Cc1ccc(/C=C/C(=O)c2ccccc(=O)c2O)cc1C | -3.33%
32 | Cc1c(C(=O)N2CCOCC2)c(S(=O)(=O)N2CCN(c3ccc(Cl)cc3)CC2)c(C)n1C | -15.3%
33 | CCCCC(CC)COC(=O)CCCCC(=O)OCC(CC)CCCC (stereo not shown) | 14.1%
34 | O=C(NC1CCCCCCC1)c1cccc(Cl)c1 | 14.4%
35 | CSc1nc2ncc(-c3ccsc3)c(N)n2n1 | 11.6%
36 | COc1ccccc1C(=O)COC(=O)CNC(=O)c1ccc(Br)o1 | 3.56%
37 | COc1ccc(C(=O)Nc2cccc(-c3cc4ccccc4oc3=O)c2)cc1[N+](=O)[O-] | 5.3%
38 | CC(=O)CSc1ncnc2c1oc1ccccc12 | 11.7%
39 | COCCNC(=O)C(c1ccco1)N(C(=O)Cn1nnc2ccccc21)c1cc(C)ccc1C (stereo not shown) | 0.501%
40 | COC(=O)c1cccc(C23CC4(C2)[C@H](CN(Cc2cccnc2)[C@@H]4c2ccccc2)C3c2ccccc2)c1 (stereo partly shown) | 8.55%
41 | S=C(Nc1ccc2snnc2c1)N1CCN(c2ccccn2)CC1 | 10%
42 | COC(=O)COC(=O)c1ccc(-n2nnnc2SC)cc1 | 11.1%
43 | O=C(Nc1ccc(NC(=O)c2ccc(Cl)cc2Cl)cc1)c1cccs1 | 12.9%
44 | O=C(NCc1ccco1)C1CCN(C(=O)Cc2ccccc2)CC1 | 11.3%
45 | COc1ccc(-c2cc(-c3ccc(C)cc3)nc(SCc3nnc(-c4ccccc4)o3)c2C#N)cc1OC | 8.98%
46 | Cc1ccc(C)c(OCCn2cc(/C=C(\C#N)C(=O)NCc3cccs3)c3ccccc32)c1 | 10.9%
